From PubChem BioAssay (NCI)
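Tested at 5 concentrations; 48 h exposure; 96-well plates; endpoints linearly interpolated, else capped at highest concentration. GI50: concentration for 50% inhibition of growth.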 A number of entries come with more than one value. The other results are left out here. There may be further records. For some assays here: The tests behind the records often covered other concentration ranges, not given here; some values may only mark the edge of a range. A tag in brackets gives the origin of a value. Letters hold for one entry only. For some assays here: Values given together repeat one measurement in other runs, samples, wells, individuals or studies.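 TGI: total growth inhibition.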

Key:
Assay in all cases: inhibition of tumour cell growth, NCI panel, 48 h
786-0 renal = test system: 786-0 renal
A498 renal = test system: A498 renal
A549 NSCLC = test system: A549 NSCLC
ACHN renal = test system: ACHN renal
CAKI-1 renal = test system: CAKI-1 renal
CCRF-CEM leukemia = test system: CCRF-CEM leukemia
DLD-1 colon = test system: DLD-1 colon
DMS 114 small cell lung = test system: DMS 114 small cell lung
DMS 273 small cell lung = test system: DMS 273 small cell lung
EKVX NSCLC = test system: EKVX NSCLC
HCC-2998 colon = test system: HCC-2998 colon
HCT-116 colon = test system: HCT-116 colon
HCT-15 colon = test system: HCT-15 colon
HL-60(TB) leukemia = test system: HL-60(TB) leukemia
HOP-18 NSCLC = test system: HOP-18 NSCLC
HOP-62 NSCLC = test system: HOP-62 NSCLC
HOP-92 NSCLC = test system: HOP-92 NSCLC
HT29 colon = test system: HT29 colon
IGROV1 ovarian = test system: IGROV1 ovarian
K-562 leukemia = test system: K-562 leukemia
KM12 colon = test system: KM12 colon
KM20L2 colon = test system: KM20L2 colon
LOX IMVI melanoma = test system: LOX IMVI melanoma
LXFL 529 NSCLC = test system: LXFL 529 NSCLC
M14 melanoma = test system: M14 melanoma
M19-MEL melanoma = test system: M19-MEL melanoma
MALME-3M melanoma = test system: MALME-3M melanoma
MOLT-4 leukemia = test system: MOLT-4 leukemia

O=C1NC2C(CC(O)C(O)C2O)c2cc3c(c(O)c21)OCO3 (stereo unspecified)
GI50 (786-0 renal): 53.7 nM, < 14.6 nM [sample A, mean of 2 tests] and 2.54 µM [sample B, mean of 2 tests]
TGI (786-0 renal): 413 nM, 105 nM [sample A, mean of 2 tests] and 14.7 µM [sample B, mean of 2 tests]
GI50 (A498 renal): 136 nM, 26.5 nM [sample A, mean of 2 tests] and 3.62 µM [sample B, mean of 2 tests]
TGI (A498 renal): 457 nM, 128 nM [sample A, mean of 2 tests] and 17.8 µM [sample B, mean of 2 tests]
GI50 (A549 NSCLC): 106 nM, 18.1 nM [sample A, mean of 2 tests] and 3.55 µM [sample B, mean of 2 tests]
TGI (A549 NSCLC): 669 nM, 234 nM [sample A, mean of 2 tests] and 29.8 µM [sample B, mean of 2 tests]
GI50 (ACHN renal): 87.7 nM, < 16 nM [sample A, mean of 2 tests] and 2.5 µM [sample B, mean of 2 tests]
TGI (ACHN renal): 476 nM, 63.9 nM [sample A, mean of 2 tests] and 10.7 µM [sample B, mean of 2 tests]
GI50 (CAKI-1 renal): < 18.9 nM [sample A, mean of 2 tests] and 3.18 µM [sample B, mean of 2 tests]
TGI (CAKI-1 renal): 500 nM [sample A, 1 test] and 124 nM [sample A, mean of 2 tests] and 18.4 µM [sample B, mean of 2 tests]
GI50 (CCRF-CEM leukemia): 26.6 nM [sample A, 1 test] and < 11.6 nM [sample A, mean of 2 tests] and 1.52 µM [sample B, mean of 2 tests]
TGI (CCRF-CEM leukemia): 196 nM [sample A, 1 test] and 38.3 nM [sample A, mean of 2 tests] and 9.51 µM [sample B, mean of 2 tests]
GI50 (DLD-1 colon): 37.3 nM [sample A, 1 test] and 20.1 nM [sample A, mean of 2 tests] and 2.97 µM [sample B, 1 test]
TGI (DLD-1 colon): 250 nM [sample A, 1 test] and 15.3 µM [sample B, 1 test]
GI50 (DMS 114 small cell lung): 37.5 nM, < 14.4 nM [sample A, mean of 2 tests] and 2.91 µM [sample B, mean of 2 tests]
TGI (DMS 114 small cell lung): 260 nM, 61 nM [sample A, mean of 2 tests] and 13.8 µM [sample B, mean of 2 tests]
GI50 (DMS 273 small cell lung): 124 nM [sample A, 1 test] and < 16.8 nM [sample A, mean of 2 tests] and 2.65 µM [sample B, mean of 2 tests]
TGI (DMS 273 small cell lung): 564 nM [sample A, 1 test] and 61.6 nM [sample A, mean of 2 tests] and 12.5 µM [sample B, mean of 2 tests]
GI50 (EKVX NSCLC): 40.2 nM [sample A, 1 test] and 87.5 nM [sample A, mean of 2 tests] and 3.44 µM [sample B, 1 test]
TGI (EKVX NSCLC): 168 nM [sample A, 1 test] and 377 nM [sample A, mean of 2 tests] and 14.3 µM [sample B, 1 test]
GI50 (HCC-2998 colon): < 13.4 nM [sample A, mean of 2 tests] and 2.09 µM [sample B, mean of 2 tests]
TGI (HCC-2998 colon): 59 nM [sample A, mean of 2 tests] and 6.71 µM [sample B, mean of 2 tests]
GI50 (HCT-116 colon): 33.1 nM, < 10.5 nM [sample A, mean of 2 tests] and 1.68 µM [sample B, mean of 2 tests]
TGI (HCT-116 colon): 161 nM, 32 nM [sample A, mean of 2 tests] and 8.05 µM [sample B, mean of 2 tests]
GI50 (HCT-15 colon): 74.4 nM [sample A, 1 test] and 21.9 nM [sample A, mean of 2 tests] and 3.25 µM [sample B, mean of 2 tests]
TGI (HCT-15 colon): 502 nM [sample A, 1 test] and > 40.6 µM [sample B, mean of 2 tests]
GI50 (HL-60(TB) leukemia): 23.6 nM, 10.1 nM [sample A, mean of 2 tests] and 1.71 µM [sample B, mean of 2 tests]
TGI (HL-60(TB) leukemia): 76.1 nM, < 21.5 nM [sample A, mean of 2 tests] and 4.75 µM [sample B, mean of 2 tests]
GI50 (HOP-18 NSCLC): 15.5 nM [sample A, 1 test] and 122 nM [sample A, mean of 2 tests] and 2.56 µM [sample B, 1 test]
TGI (HOP-18 NSCLC): 381 nM [sample A, 1 test] and 609 nM [sample A, mean of 2 tests] and 20.7 µM [sample B, 1 test]
GI50 (HOP-62 NSCLC): 48.2 nM [sample A, 1 test] and 15.6 nM [sample A, mean of 2 tests] and 3.29 µM [sample B, mean of 2 tests]
TGI (HOP-62 NSCLC): 265 nM [sample A, 1 test] and 57.5 nM [sample A, mean of 2 tests] and 13 µM [sample B, mean of 2 tests]
GI50 (HOP-92 NSCLC): 20.5 nM, < 10 nM [sample A, 1 test] and 456 nM, 2.41 µM [sample B, 1 test]
TGI (HOP-92 NSCLC): 88.6 nM, 49.5 nM [sample A, 1 test] and 25.4 µM [sample B, 1 test]
GI50 (HT29 colon): 54.8 nM, < 14.2 nM [sample A, mean of 2 tests] and 2.4 µM [sample B, mean of 2 tests]
TGI (HT29 colon): 942 nM, 96.2 nM [sample A, mean of 2 tests] and 15.5 µM [sample B, mean of 2 tests]
GI50 (IGROV1 ovarian): 26.6 nM [sample A, 1 test] and 145 nM [sample A, mean of 2 tests] and 4.57 µM [sample B, 1 test]
TGI (IGROV1 ovarian): 64.8 nM [sample A, 1 test] and 626 nM [sample A, mean of 2 tests] and 45.2 µM [sample B, 1 test]
GI50 (K-562 leukemia): 32 nM, < 12.6 nM [sample A, mean of 2 tests] and 1.81 µM [sample B, mean of 2 tests]
TGI (K-562 leukemia): 291 nM, 54 nM [sample A, mean of 2 tests] and 11 µM [sample B, mean of 2 tests]
GI50 (KM12 colon): 39.3 nM, < 11.6 nM [sample A, mean of 2 tests] and 1.66 µM [sample B, mean of 2 tests]
TGI (KM12 colon): 282 nM, 74.5 nM [sample A, mean of 2 tests] and 11.9 µM [sample B, mean of 2 tests]
GI50 (KM20L2 colon): < 10 nM [sample A, 1 test] and 53.6 nM [sample A, mean of 2 tests] and 2.74 µM [sample B, 1 test]
TGI (KM20L2 colon): 82.4 nM [sample A, 1 test] and 694 nM [sample A, mean of 2 tests] and 43.5 µM [sample B, 1 test]
GI50 (LOX IMVI melanoma): 31.5 nM, 10.1 nM [sample A, mean of 2 tests] and 1.34 µM [sample B, mean of 2 tests]
TGI (LOX IMVI melanoma): 282 nM, 24.2 nM [sample A, mean of 2 tests] and 4.4 µM [sample B, mean of 2 tests]
GI50 (LXFL 529 NSCLC): 43.3 nM, < 13 nM [sample A, mean of 2 tests] and 2.4 µM [sample B, mean of 2 tests]
TGI (LXFL 529 NSCLC): 487 nM, 85.8 nM [sample A, mean of 2 tests] and 14.6 µM [sample B, mean of 2 tests]
GI50 (M14 melanoma): 49 nM, < 12.3 nM [sample A, mean of 2 tests] and 1.94 µM [sample B, mean of 2 tests]
TGI (M14 melanoma): 180 nM, 30.1 nM [sample A, mean of 2 tests] and 5.38 µM [sample B, mean of 2 tests]
GI50 (M19-MEL melanoma): 39.8 nM, < 12.7 nM [sample A, mean of 2 tests] and 2.35 µM [sample B, mean of 2 tests]
TGI (M19-MEL melanoma): 252 nM, 49.1 nM [sample A, mean of 2 tests] and 9.9 µM [sample B, mean of 2 tests]
GI50 (MALME-3M melanoma): 59.8 nM, 18.3 nM [sample A, mean of 2 tests] and 1.92 µM [sample B, mean of 2 tests]
TGI (MALME-3M melanoma): 309 nM, 71 nM [sample A, mean of 2 tests] and 7.47 µM [sample B, mean of 2 tests]
GI50 (MOLT-4 leukemia): 21.8 nM, < 12.7 nM [sample A, mean of 2 tests] and 1.6 µM [sample B, mean of 2 tests]
TGI (MOLT-4 leukemia): 88.5 nM, < 23.3 nM [sample A, mean of 2 tests] and 4.8 µM [sample B, mean of 2 tests]
